Measured values: the supplement of paper PMC12217912
Some of the results follow. The full chains were built here from the parent and the listed change. Values near 0.05 are background.

B1: TEV protease; numbered along this chain (parent)
chain: MGESLFKGPRDYNPISSSICHLTNESDGHTTSLYGIGFGPFIITNKHLFRRNNGTLVVQSLHGVFKVKDTTTLQQHLVDGRDMIIIRMPKDFPPFPQKLKFREPQREERICLVTTNFQTKSMSSMVSDTSCTFPSGDGIFWKHWIQTKDGQCGSPLVSTRDGFIVGIHSASNFTNTNNYFTSVPKNFMELLTNQEAQQWVSGWRLNADSVLWGGHKVFMVKPEEPFQPVKEATQL

Variants of: B1
Test: raw area under fraction-flipped curve 0-4 h after induction (AUC4h, not background-subtracted), DNA-recorder readout of cleavage of the substrate (dimensionless); higher = more cleavage of the substrate by the protease variant
Settings: temperature: 34 °C; time window: 0-4 h after rhamnose induction
Experimental: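 In vivo DNA recorder in E. coli TOP10(DE3) ΔrhaA at 34 °C. Each TEVp single-site mutant (parent TEVp 0) is paired with a single-site variant of the 7-mer TEVs (canonical ENLYFQ|S). The substrate sits between flexible linkers in a Bxb1-sfGFP-TEVs-SsrA fusion, so cleavage stabilises Bxb1 and speeds flipping of a recombination array, read by NGS. The value is the raw area under the fraction-flipped curve over 0-4 h after rhamnose induction (AUC4h), with ≥20 reads per time point. It is not background-subtracted; inactive controls average about 0.047.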
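Note: Bxb1 expression induced with 0.2% (w/v) L-rhamnose at OD600 near 0.5, cultures sampled hourly, flipped fraction per protease–substrate barcode pair counted by paired-end Illumina sequencing.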

Row | Variant | area with substrate EALYFQS | area with substrate ECLYFQS | area with substrate EELYFQS | area with substrate EFLYFQS | area with substrate EGLYFQS | area with substrate EILYFQS | area with substrate EKLYFQS | area with substrate ELLYFQS | area with substrate EMLYFQS | area with substrate EPLYFQS | area with substrate EQLYFQS | area with substrate ERLYFQS | area with substrate ESLYFQS | area with substrate EVLYFQS | area with substrate EWLYFQS | area with substrate EYLYFQS | area with substrate EDLYFQS | area with substrate EHLYFQS | area with substrate ETLYFQS
1 | G37E | 0.0546 | 0.0522 | 0.0643 | 0.0233 | 0.0291 | 0.0438 | 0.0507 | 0.055 | 0.0529 | 0.0533 | 0.0583 | 0.0442 | 0.0548 | 0.0428 | 0.0556 | 0.065 |  |  | 
2 | F41V | 0.0995 | 0.0957 | 0.107 | 0.12 | 0.0996 | 0.0978 | 0.108 | 0.0858 |  | 0.101 | 0.0889 | 0.0948 | 0.101 | 0.0813 | 0.0864 | 0.0858 |  |  | 
3 | G28E | 0.103 | 0.0925 | 0.0836 |  | 0.0722 | 0.0865 |  |  |  |  | 0.112 | 0.104 | 0.107 | 0.0945 | 0.101 | 0.0842 | 0.122 | 0.0974 | 0.129
4 | G28P | 0.0708 | 0.053 | 0.0696 | 0.0776 |  | 0.0678 | 0.0734 |  |  | 0.0863 | 0.0875 | 0.0755 | 0.0683 |  |  | 0.0826 |  | 0.12 | 0.0769
5 | G28R | 0.0897 | 0.0836 | 0.117 | 0.0931 | 0.0726 | 0.0778 | 0.101 | 0.108 |  |  | 0.0912 | 0.0919 | 0.088 | 0.0871 |  |  | 0.14 | 0.0997 | 0.0749
6 | G28A | 0.14 | 0.0989 |  |  | 0.0992 | 0.086 |  | 0.0864 | 0.116 | 0.126 | 0.112 | 0.0796 | 0.0944 | 0.0896 | 0.0771 | 0.0999 | 0.172 |  | 
7 | G28N | 0.0979 |  |  | 0.12 |  | 0.0901 | 0.0939 | 0.116 |  |  | 0.0947 | 0.11 | 0.0884 | 0.0755 |  |  | 0.108 |  | 
8 | G28W | 0.145 | 0.0797 |  | 0.0724 | 0.0628 | 0.0696 | 0.0842 | 0.0695 |  | 0.101 | 0.0843 | 0.0951 | 0.0889 | 0.0691 | 0.0788 | 0.0534 | 0.0896 | 0.0741 | 
9 | T44Y | 0.0439 | 0.0446 | 0.0374 |  | 0.0198 | 0.0393 | 0.0467 | 0.0453 | 0.0403 | 0.0463 | 0.0616 | 0.0277 | 0.0435 |  |  | 0.0341 |  | 0.0503 | 
10 | L61K | 0.12 | 0.102 | 0.121 |  | 0.0995 | 0.104 |  | 0.102 |  | 0.121 |  | 0.0906 | 0.11 | 0.0918 |  |  | 0.126 |  | 
11 | E25Q | 0.137 | 0.125 | 0.135 | 0.127 | 0.0889 |  |  |  | 0.107 | 0.0956 | 0.138 | 0.0952 | 0.0088 | 0.101 | 0.102 | 0.118 |  |  | 0.104
12 | S26A | 0.0337 | 0.094 | 0.0837 | 0.0852 | 0.0773 | 0.0805 | 0.102 | 0.0969 | 0.102 | 0.129 | 0.0522 | 0.0843 | 0.0934 | 0.0876 | 0.0874 | 0.0906 | 0.106 | 0.0859 | 0.099
